Reference: the supplement of paper PMC3334620
Over roughly 33,000 sequences, “E-score (-0.5 to 0.5)” has its median near -0.043; the highest 2% begin near 0.37. This is one part of the list.

What follows are sequences tested against T1, Upc2 (UniProt Q12151) (assay: PBM E-score (8-mer binding enrichment) (E-score (-0.5 to 0.5)); higher = stronger / more preferred TF binding; most listed sequences are background and not binding sites). Settings: protein concentration: 200 nM; construct: GST-full length.
T1 sequence: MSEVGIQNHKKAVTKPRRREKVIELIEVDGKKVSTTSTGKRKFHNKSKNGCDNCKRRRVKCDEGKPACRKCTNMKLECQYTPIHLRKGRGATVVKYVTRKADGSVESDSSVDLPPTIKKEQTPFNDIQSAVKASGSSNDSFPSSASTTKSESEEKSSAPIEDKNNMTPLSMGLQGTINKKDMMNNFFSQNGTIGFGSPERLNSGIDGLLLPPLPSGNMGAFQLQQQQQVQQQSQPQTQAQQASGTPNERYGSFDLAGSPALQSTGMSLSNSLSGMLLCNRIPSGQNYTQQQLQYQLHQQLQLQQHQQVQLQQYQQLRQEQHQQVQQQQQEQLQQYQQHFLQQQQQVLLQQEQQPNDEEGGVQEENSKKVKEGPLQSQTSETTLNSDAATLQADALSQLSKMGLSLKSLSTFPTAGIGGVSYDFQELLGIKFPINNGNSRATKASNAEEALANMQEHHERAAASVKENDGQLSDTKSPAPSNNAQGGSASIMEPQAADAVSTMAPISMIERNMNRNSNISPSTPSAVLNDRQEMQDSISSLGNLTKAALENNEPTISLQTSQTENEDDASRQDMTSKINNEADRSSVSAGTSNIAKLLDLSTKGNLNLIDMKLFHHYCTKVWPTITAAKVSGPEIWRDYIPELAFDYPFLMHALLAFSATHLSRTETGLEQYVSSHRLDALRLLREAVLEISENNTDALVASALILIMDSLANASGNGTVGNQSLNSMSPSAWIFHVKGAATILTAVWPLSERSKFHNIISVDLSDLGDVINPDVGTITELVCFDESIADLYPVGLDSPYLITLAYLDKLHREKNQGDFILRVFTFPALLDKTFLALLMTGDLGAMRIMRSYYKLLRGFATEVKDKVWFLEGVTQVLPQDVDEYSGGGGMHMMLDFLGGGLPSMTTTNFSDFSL
Outline: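 For each ungapped eight-base word taken together with its reverse complement, the Universal PBM Analysis Suite assigned an E-score. Binding data came from GST-tagged yeast transcription factors, applied at about 100-200 nM, on universal all-10-mer Agilent arrays made double-stranded by primer extension. Fluorescent anti-GST marked bound protein, and scans were normalised with masliner.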
In the case of CACCGCAG, the “PBM E-score” value is reported as -0.217.
AAGGTTCT was tested, and the “PBM E-score” value was -0.0176.
CTATGTCC was tested, and the “PBM E-score” value was -0.24.
For CCTGGTTC, the “PBM E-score” value was -0.0512.
In the case of AAGAAAAC, the “PBM E-score” value is reported as 0.104.
In the case of ATATCGAA, the “PBM E-score” value is reported as 0.0025.
In the case of ATACGGAC, the “PBM E-score” value is reported as 0.394.
ACGATCTC was tested, and the “PBM E-score” value was 0.237.
In the case of CAGCGGGA, the “PBM E-score” value is reported as -0.319.
With AGAAAATC the “PBM E-score” value was 0.0457.
With ACGATTTC the “PBM E-score” value was 0.256.
AGATCGAT was tested, and the “PBM E-score” value was -0.212.
With ACACACCG the “PBM E-score” value was 0.157.
For AGTCTCTG, the “PBM E-score” value was -0.0489.
In the case of ATCAAGTC, the “PBM E-score” value is reported as -0.0287.
In the case of ACCCACAG, the “PBM E-score” value is reported as -0.0427.
CGCGAATA was tested, and the “PBM E-score” value was 0.213.
With CAGAAATC the “PBM E-score” value was -0.119.
With CAGACGTC the “PBM E-score” value was -0.277.
In the case of CCGTGAAC, the “PBM E-score” value is reported as 0.146.
For CGATTTTA, the “PBM E-score” value was 0.116.
GCCGCAAA was tested, and the “PBM E-score” value was 0.0539.
TATTAGAA was tested, and the “PBM E-score” value was 0.0328.
In the case of ACCCTAAA, the “PBM E-score” value is reported as 0.133.
For AGGAAAAA, the “PBM E-score” value was -0.00064.
For CCCATGGG, the “PBM E-score” value was -0.199.
In the case of GTATACTA, the “PBM E-score” value is reported as 0.282.
GCAGGTAC was tested, and the “PBM E-score” value was -0.048.
With ACCATGGG the “PBM E-score” value was -0.262.
For ATGCTACC, the “PBM E-score” value was -0.235.
AAAGCGAT was tested, and the “PBM E-score” value was 0.103.
For CGCTACAG, the “PBM E-score” value was -0.105.
For ATTCGATA, the “PBM E-score” value was 0.0034.
For GGAAAAAA, the “PBM E-score” value was 0.0801.
For CAAGACGC, the “PBM E-score” value was -0.147.
With CACCAAGG the “PBM E-score” value was -0.286.
With GAGAAAAA the “PBM E-score” value was -0.0102.
For TCCGGTAA, the “PBM E-score” value was 0.0119.
CGTAATGC was tested, and the “PBM E-score” value was 0.15.
With AATACCTA the “PBM E-score” value was -0.101.
In the case of TCAAGAAA, the “PBM E-score” value is reported as 0.047.
For AGAAGCAT, the “PBM E-score” value was -0.165.
GAGACATC was tested, and the “PBM E-score” value was 0.0481.
GACTACTA was tested, and the “PBM E-score” value was -0.05.
In the case of CATGCGGG, the “PBM E-score” value is reported as -0.214.
In the case of CAAGCGTC, the “PBM E-score” value is reported as -0.159.
With AGGCGGGA the “PBM E-score” value was -0.277.
For ATGGCTAC, the “PBM E-score” value was 0.151.
For AAGAAAAT, the “PBM E-score” value was 0.15.
CAGGTACG was tested, and the “PBM E-score” value was 0.396.
CGCAATCA was tested, and the “PBM E-score” value was -0.182.
CTATAAGC was tested, and the “PBM E-score” value was 0.0678.
With CAGTGAAC the “PBM E-score” value was 0.019.
In the case of CAGGTGTA, the “PBM E-score” value is reported as -0.00306.
In the case of GCGCGGAA, the “PBM E-score” value is reported as -0.0233.
GCTGCGTA was tested, and the “PBM E-score” value was 0.22.
With GTCCAATA the “PBM E-score” value was -0.00904.
GAAGGGCC was tested, and the “PBM E-score” value was -0.15.
In the case of GAGACGCA, the “PBM E-score” value is reported as -0.0494.
With GCCTGCGC the “PBM E-score” value was -0.271.
With ACACCGGA the “PBM E-score” value was -0.0917.
GACGTAAA was tested, and the “PBM E-score” value was 0.228.
GTAACCAA was tested, and the “PBM E-score” value was 0.041.
ACTTTCAA was tested, and the “PBM E-score” value was -0.00015.
For GATAAGAC, the “PBM E-score” value was 0.0241.
With ACTTCGTG the “PBM E-score” value was 0.0872.
For CGAAAATC, the “PBM E-score” value was 0.146.
In the case of TATCGTCA, the “PBM E-score” value is reported as 0.0773.
ACGCGGCT was tested, and the “PBM E-score” value was 0.163.
With AGCTACAT the “PBM E-score” value was -0.0994.
For AGTACCTG, the “PBM E-score” value was -0.0657.
For CCATTCTA, the “PBM E-score” value was -0.068.
With TCAAGCAA the “PBM E-score” value was -0.139.
With AGCCGACG the “PBM E-score” value was 0.00221.
CTTCGGGA was tested, and the “PBM E-score” value was 0.058.
CCGCGTGA was tested, and the “PBM E-score” value was -0.00343.
In the case of CGAGATCA, the “PBM E-score” value is reported as 0.203.
CCACTCCA was tested, and the “PBM E-score” value was -0.12.
With CATTGCCA the “PBM E-score” value was 0.00823.
With AACCCCAA the “PBM E-score” value was -0.139.
ATTCCAGG was tested, and the “PBM E-score” value was -0.316.
ACCTGTAC was tested, and the “PBM E-score” value was 0.242.
For CCCGTCCA, the “PBM E-score” value was -0.00605.
For AGACCTCG, the “PBM E-score” value was 0.213.
For GATAAGTA, the “PBM E-score” value was 0.0858.
For CCATAGTC, the “PBM E-score” value was -0.323.
GAATGGTC was tested, and the “PBM E-score” value was -0.0557.
With ACAATGGT the “PBM E-score” value was -0.315.
AAGCGATT was tested, and the “PBM E-score” value was 0.189.
CGAACGAC was tested, and the “PBM E-score” value was 0.401.
In the case of CCTGACAA, the “PBM E-score” value is reported as -0.108.
With AGGCTGTC the “PBM E-score” value was -0.015.
In the case of TACGGCAA, the “PBM E-score” value is reported as 0.327.
CCAGGGTC was tested, and the “PBM E-score” value was -0.103.
GATCCGCA was tested, and the “PBM E-score” value was -0.165.
CCCGCATC was tested, and the “PBM E-score” value was 0.00411.
For AGTAAGCA, the “PBM E-score” value was -0.157.
With CAACCTTC the “PBM E-score” value was -0.138.
In the case of GCTTTTCC, the “PBM E-score” value is reported as 0.0253.
For TCTCGCAA, the “PBM E-score” value was 0.148.
For GAGCATCA, the “PBM E-score” value was -0.142.
For TCTGATCA, the “PBM E-score” value was -0.317.
With GAGGGCTA the “PBM E-score” value was -0.178.
For AGCTCCTA, the “PBM E-score” value was -0.154.
CTATGCGC was tested, and the “PBM E-score” value was -0.0498.
AGCCGTCC was tested, and the “PBM E-score” value was -0.129.
ACATCCAC was tested, and the “PBM E-score” value was 0.101.
AAAAATAG was tested, and the “PBM E-score” value was -0.0252.
In the case of AATGGTAC, the “PBM E-score” value is reported as 0.105.
For GGTGCTGA, the “PBM E-score” value was -0.218.
